Consider 89 compounds from PubChem BioAssay AID360 (National Center for Advancing Translational Sciences (NCATS), 2006).

The structures appear in SMILES notation. Hit rate of the full screen: of about 48,000 compounds, about 550 (1.1%) were called active. Inconclusive results (about 4%) are left out. No stated cut-off is given here; in the data, active means potency below about 15 µM; inconclusive means mostly about 16 µM to 33 µM; inactive means weaker than that. The list shows a part of the results.
Potency means the concentration at half of the fitted maximal effect.

For the test, the target named is Lysosomal acid glucosylceramidase (Homo sapiens) (UniProt P04062). In words: Glucocerebrosidase.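 Further: the screen sought inhibitors.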 The following applies: purified enzyme, resorufin glucoside fluorescence (screen aimed at inhibitors), 20 min. Summed up: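 Compounds titrated against 0.2 nM normal enzyme, 30 uM resorufin beta-D-glucopyranoside substrate, citrate/phosphate buffer with taurocholate and tween-20, pH 5.9. Reaction ran 20 min at room temperature; fluorescence (Ex 548/Em 600) gave AC50.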
UniProt P04062, sequence (P04062 whole entry, looked up): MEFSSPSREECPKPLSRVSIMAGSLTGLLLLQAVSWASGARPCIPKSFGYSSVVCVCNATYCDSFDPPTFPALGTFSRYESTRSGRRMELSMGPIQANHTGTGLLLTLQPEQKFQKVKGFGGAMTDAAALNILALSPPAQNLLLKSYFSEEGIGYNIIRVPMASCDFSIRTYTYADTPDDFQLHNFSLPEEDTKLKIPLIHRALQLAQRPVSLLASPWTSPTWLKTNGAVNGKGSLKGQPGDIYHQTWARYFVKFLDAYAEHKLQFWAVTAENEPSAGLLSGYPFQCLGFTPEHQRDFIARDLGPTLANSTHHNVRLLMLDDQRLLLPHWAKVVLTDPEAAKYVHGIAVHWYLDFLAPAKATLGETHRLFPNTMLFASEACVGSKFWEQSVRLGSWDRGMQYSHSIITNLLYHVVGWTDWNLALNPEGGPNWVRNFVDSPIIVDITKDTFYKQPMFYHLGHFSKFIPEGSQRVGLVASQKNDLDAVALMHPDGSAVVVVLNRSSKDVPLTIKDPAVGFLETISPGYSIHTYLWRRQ
With `COCC(=O)N1CCC(n2nnc3cc(F)ccc32)CC1`, the Potency was inactive: > 76.9 µM. With `CCn1c(C)cc2c(c1=O)C(c1ccccc1Br)C(C#N)=C(N)O2` (centres undefined) the figure was inactive: > 76.9 µM; with `CCOC(=O)C1C(=O)NC(N2CCN(CC)CC2)=NC1c1ccccc1` (centres undefined), inactive: > 76.9 µM; with `COc1ccc(CNC(=O)CN(CC2CCCO2)C(=O)CNS(=O)(=O)c2ccccc2)cc1` (centres undefined), inactive: > 76.9 µM. Next, `O=C1C(=O)N(CCOCCO)C(c2ccccn2)/C1=C(\O)c1ccccc1` (centres undefined): inactive: > 76.9 µM; `Cc1cc(C(=O)CSc2nncs2)c(C)n1-c1c(C)n(C)n(-c2ccccc2)c1=O`: inactive: > 76.9 µM; `O=C(Nc1cnc2ccccc2c1)N1CCOCC1`: inactive: > 76.9 µM. As for `COC(=O)c1ccc(NC(=O)CN2CCN(S(=O)(=O)c3cc(Cl)ccc3OC)CC2)cc1`, the Potency was inactive: > 76.9 µM. On to `CCCCN(CC)CCCNC(=O)Cn1nc(Cc2ccncc2)c2ccccc2c1=O`, for which the Potency was inactive: > 76.9 µM. On to `Cc1cc(O)c(C(C)C)cc1NS(=O)(=O)c1ccccc1`, for which the Potency is inactive: > 76.9 µM. With `CCc1nnc(NC(=O)C2CCN(c3nc(C)cc(C)n3)CC2)s1` the entry was “inactive”; with `O=C(CSc1ncc(-c2ccc(F)cc2)[nH]1)NCc1ccco1`, inactive: > 76.9 µM.

For `COCCN(CCOC)c1cc(C)c(C#N)c2nc3ccccc3n12`, the Potency is inactive: > 76.9 µM. Next, `COc1ccc(C)cc1C(=O)CCC(=O)Nc1ccccc1N1CCOCC1`: inactive: > 76.9 µM; `CC(=O)Nc1cc2nn(-c3ccccc3)nc2cc1Cl`: inactive: > 76.9 µM; `CC(C)CN(C(=O)COC(=O)Cc1n[nH]c(=O)c2ccccc12)C1CCS(=O)(=O)C1` (centres undefined): inactive: > 76.9 µM. In the case of `CCOC(=O)c1cc(NC(=O)c2cc(C)on2)cc(C(=O)OCC)c1`, the Potency is inactive: > 76.9 µM. With `O=C(COc1ccc2ccccc2c1Br)N1CCOCC1` the figure was inactive: > 76.9 µM; with `CCN1C(=O)/C(=C/N(C)C)c2ccccc21`, inactive: > 76.9 µM; with `CSc1ncccc1C(=O)OCC(=O)c1cc2ccccc2o1`, inactive: > 76.9 µM.

Regarding `COc1ccc(Cc2nnc3n2N=C(c2cc4ccccc4o2)CS3)cc1OC`, the Potency is inactive: > 76.9 µM. Next, `CCOc1ccc(NC(=O)c2ccco2)cc1`: inactive: > 76.9 µM; `CCC(C)C(NC(=O)c1ccccc1NC(=O)c1ccc(OC)cc1)C(=O)NCc1ccco1` (centres undefined): inactive: > 76.9 µM. With `CCCCn1c(CN2CCN(c3cccc(Cl)c3)CC2)nc2c1c(=O)n(C)c(=O)n2C` the figure was inactive: > 76.9 µM.

On to `Cc1cccc(S(=O)(=O)Nc2nc3ccccc3nc2NCc2ccco2)c1`, for which the Potency is inactive: > 76.9 µM. With `CC1CCCN(C(=O)Cc2ccc(F)cc2)C1` (centres undefined) the figure was inactive: > 76.9 µM; with `COc1ccc(F)cc1S(=O)(=O)n1cc(C)nc1-c1ccccc1`, inactive: > 76.9 µM; with `Cc1nnc(SCC(=O)n2c3c(c4ccccc42)CCCC3)s1`, inactive: > 76.9 µM. Take `COc1ccc(C(=O)n2nc(C)cc2C)cc1OC`: the Potency was inactive: > 76.9 µM.

As to `CS(=O)(=O)N(CCc1ccccc1)CC(=O)NCc1cccnc1`, the Potency was inactive: > 76.9 µM. Turning to `CN(C)c1ccc(CN(C(=O)COc2ccc(Br)cc2)C2CCS(=O)(=O)C2)cc1` (centres undefined), the Potency was inactive: > 76.9 µM. As to `Cc1ccnc(SCCn2c(N3CCCCC3)nc3c2c(=O)n(C)c(=O)n3C)n1`, the Potency was inactive: > 76.9 µM. Next, `CSc1nc(NCCOCCO)c2sc3nc(-c4ccco4)c4c(c3c2n1)CCC4`: inactive: > 76.9 µM.

On to `O=C(N1CCN(c2ccccc2F)CC1)C12CC3CC(CC(C3)C1)C2`, for which the Potency was inactive: > 76.9 µM. Next, `Cn1c(=O)c(C(=O)Nc2cnccn2)c(O)c2ccccc21`: inactive: > 76.9 µM. Turning to `CC(=O)Nc1ccc(SCC(=O)OCC(=O)NC(=O)NCc2ccco2)cc1`, the Potency is inactive: > 76.9 µM.

For the compound `CC1(C)CC(=O)CC(=Nc2ccc(C(=O)O)cc2)C1`, the Potency is inactive: > 76.9 µM. With `CC1(C)Cc2nc(N3CCOCC3)c(C#N)cc2CO1` the figure was inactive: > 76.9 µM. Regarding `CC(C(=O)N1c2ccccc2Sc2ccccc21)n1nnc(-c2cccs2)n1` (centres undefined), the Potency was inactive: > 76.9 µM. Turning to `Cc1cc(OCc2nn[nH]n2)c2c(-c3ccccc3)cc(=O)oc2c1`, the Potency was inactive: > 76.9 µM. Next, `O=c1nc2s/c(=C\c3ccco3)c(=O)n2nc1Cc1ccc(F)cc1`: inactive: > 76.9 µM; `CCSc1nc2c(c(=O)[nH]c(=O)n2C)n1Cc1ccc(Cl)cc1`: inactive: > 76.9 µM; `COc1ccc(C2CCCN2C(=O)c2cccs2)cc1` (centres undefined): inactive: > 76.9 µM. For `COc1cc(-c2nnc3sc(Cc4ccc(Cl)cc4)nn23)cc(OC)c1OC`, the Potency was inactive: > 76.9 µM. As to `O=C(c1cc2ccccc2oc1=O)N1CCN(Cc2ccc3c(c2)OCO3)CC1`, the Potency is inactive: > 76.9 µM. With `CCOC(=O)c1c(C)[nH]c(C(=O)Nc2ccc3c(c2)OCO3)c1C` the figure was active: 12.9 µM. With `COc1cc(C2C(C(=O)c3ccc(C)o3)=C(O)C(=O)N2CCc2ccccc2)ccc1O` (centres undefined) the figure was inactive: > 76.9 µM. In the case of `O=C(COC(=O)C1=COCCO1)Nc1ncc(C(F)(F)F)cc1Cl`, the Potency was inactive: > 76.9 µM. `CC1CN(C(=O)c2cccc(S(=O)(=O)N3CCOCC3)c2)CC(C)O1` (centres undefined): the Potency was inactive: > 76.9 µM. With `Cc1ccc(-n2nnnc2SCc2nnc(-c3ccccc3Br)o2)c(C)c1` the figure was inactive: > 76.9 µM; with `COc1nnc(-c2ccc(N3CCOCC3)c(NC(C)=O)c2)c2ccccc12`, inactive: > 76.9 µM; with `COc1ccccc1-c1nnc2n1N=C(C)CS2`, inactive: > 76.9 µM.

For `COCCNC(=O)c1ccccc1-c1nc(-c2ccccc2OC)no1`, the Potency was inactive: > 76.9 µM. In the case of `Cc1ccc(Cn2nnc3c(=O)n(CC(=O)N4CCCc5ccccc54)cnc32)cc1`, the Potency is inactive: > 76.9 µM. With `COC(=O)c1cccc(N2C(=O)c3ccccc3S2(=O)=O)c1`, the Potency is inactive: > 76.9 µM. Next, `C=CCNC(=O)NC(=S)c1ccccc1`: inactive: > 76.9 µM; `COC(=O)c1[nH]c2ccccc2c1NC(=O)CN1CCCCCC1`: inactive: > 76.9 µM; `Cc1cc(NC(=O)CSc2nc3ccsc3c(=O)n2NC(=O)c2ccccc2)no1`: inactive: > 76.9 µM. With `Cc1cccc(C)c1NC(=O)N1CCN(C2CCCCC2)CC1` the figure was inactive: > 76.9 µM. For `CC1CCC(C(C)C)C(OC(=O)COC(=O)c2cccn2C)C1` (centres undefined), the Potency was inactive: > 76.9 µM.

With `CCOC(=O)N1CCN(CC(=O)Nc2ccc(OC)cc2)CC1`, the Potency was inactive: > 76.9 µM. With `O=C(NO)C1CC2C=CC1C2` (centres undefined) the figure was inactive: > 76.9 µM; with `Fc1cnc(N2CCN(c3ccccc3)CC2)nc1N1CCN(c2ccccc2)CC1`, inactive: > 76.9 µM. With `Cc1csc2nc(CSc3nncn3-c3ccccc3)c(Br)n12` the figure was inactive: > 76.9 µM; with `CN1C(=O)NC(c2cccc(O)c2)C(C(=O)c2cccs2)C1(O)C(F)(F)F` (centres undefined), inactive: > 76.9 µM; with `Cc1ccc(C(=O)C2CCN(CC(=O)Nc3ccc4c(c3)OCCO4)CC2)cc1`, inactive: > 76.9 µM. On to `O=C(c1cc2ccccc2o1)N1CCN(c2ccccc2Cl)CC1`, for which the Potency was inactive: > 76.9 µM. With `CCn1c(=O)cc(OCC(=O)NCC2CCCO2)c2ccccc21` (centres undefined) the figure was inactive: > 76.9 µM; with `CS(=O)(=O)N1CCC(C(=O)NCc2ccncc2)CC1`, inactive: > 76.9 µM; with `CCn1cnc2sc(-c3ccccc3)cc2c1=O`, inactive: > 76.9 µM. As to `OC(COCC1COc2ccccc2O1)CN1CCN(c2ccccn2)CC1` (centres undefined), the Potency is inactive: > 76.9 µM. With `CCCc1cc(=O)[nH]c(SCC(=O)N2CCN(c3ccc(F)cc3)CC2)n1` the figure was inactive: > 76.9 µM; with `CCOc1cc(C2C3=C(CCCC3=O)N(C)C3=C2C(=O)CCC3)cc(Cl)c1O`, inactive: > 76.9 µM. As for `CCCn1c(C)cc(=O)c2cc(NC(=O)c3cnccn3)ccc21`, the Potency was inactive: > 76.9 µM. With `CCOc1ccc(-n2c(=S)sc3c(=O)[nH]c(SCC(=O)NCc4ccco4)nc32)cc1` the figure was inactive: > 76.9 µM. Next, `COC(=O)C1=C2SC(C)C(=O)N2C(N)=C(C#N)C1c1cc(OC)c(OC)c(OC)c1` (centres undefined): inactive: > 76.9 µM. Next, `COc1ccc(C)cc1NC(=O)CSc1nnc(-c2ccc(Br)cc2)o1`: inactive: > 76.9 µM. With `CCCn1c(SCc2cc(=O)[nH]c3ccccc23)nc2c1c(=O)n(C)c(=O)n2C`, the Potency is inactive: > 76.9 µM.

On to `O=C(NC1CC2CCCC(C1)N2C(=O)N1CCCCC1)C1CCCCC1` (centres undefined), for which the Potency is inactive: > 76.9 µM. On to `CC1(C)NC(=O)N(CCCSc2ccc(Cl)cc2)C1=O`, for which the Potency is inactive: > 76.9 µM.

For `COc1cccc(C(=O)N(Cc2nc(-c3cccc(C)c3)no2)C(C)C)c1OC`, the Potency was inactive: > 76.9 µM. Next, `Cc1noc(C)c1COC(=O)c1ccccc1Oc1ccccc1`: inactive: > 76.9 µM; `CC(C)c1ccccc1NC(=O)c1cnccn1`: inactive: > 76.9 µM; `CCCn1c(=O)c2ccccc2n2c(SCc3nnc(-c4ccccc4Br)o3)nnc12`: inactive: > 76.9 µM. With `COc1ccc(CCN2C(=O)CC(C(N)=O)SC2=Nc2ccccc2)cc1OC` (centres undefined) the figure was inactive: > 76.9 µM. With `O=C(Nc1ccc(F)cc1)N1CCn2c(nc3ccccc32)C1` the figure was inactive: > 76.9 µM; with `CCOc1ccc(NC(=O)CN(C)CC(=O)NC2CCCc3ccccc32)cc1OCC` (centres undefined), inactive: > 76.9 µM. As for `COc1cc(-c2nnc(-c3cccnc3)o2)cc(OC)c1OC`, the Potency is inactive: > 76.9 µM.

Take `O=C(C(NS(=O)(=O)c1cccc2nsnc12)c1ccccc1)N1CCN(c2ccccn2)CC1` (centres undefined): the Potency was inactive: > 76.9 µM.
